Source: PubChem BioAssay AID504845 (National Center for Advancing Translational Sciences (NCATS), 2011)
Among all 390,000 compounds or so, about 150 (0.038%) were called active. The shares of active, inactive and inconclusive entries below differ from those in the screen. Calls follow the shape of the dose curve; as a rule, active = well fitted inhibition curve with a large enough effect; inconclusive = small, poorly fitted or top-dose-only effect; inactive = no such curve, though single readings can be large or run the other way. Where the call is inconclusive, the potency comes from a doubtful curve fit.

biological target: Regulator of G-protein signaling 4 (Homo sapiens) (UniProt P49798); test: Inhibitors of Regulator of G Protein Signaling (RGS) 4: qHTS; settings: Transcreener GDP fluorescence polarization, RGS4-accelerated GTP hydrolysis; series mostly up to 114 µM; activity change, negative = inhibition: at the top concentration; also: nearly all actives have a fitted effect of over 75% in size
In short: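 MLSMR compounds (23 nl, pin-transferred) preincubated 10 min at room temperature with a 500nM (2x) first reagent, then RGS4 at 900nM (2x) plus Transcreener GDP mix added; fluorescence polarization (620/688 nm) read before and after 90 min at 30 °C.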
% is scaled to controls: 0 for no effect and ±100 for the full control effect; potency is read from the fitted curve at half-maximal effect; tags tell the direction and shape of the fitted curve.

UniProt P49798, sequence (P49798 whole entry, looked up): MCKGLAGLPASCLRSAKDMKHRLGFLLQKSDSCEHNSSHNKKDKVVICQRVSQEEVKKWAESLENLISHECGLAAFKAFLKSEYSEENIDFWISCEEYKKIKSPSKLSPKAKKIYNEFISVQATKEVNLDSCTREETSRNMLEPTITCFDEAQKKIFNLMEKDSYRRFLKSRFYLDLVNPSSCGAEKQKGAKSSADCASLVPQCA

Q: Which “activity change, negative = inhibition” value does the source give for `Nc1ccc2nc(-c3ccccn3)[nH]c2c1` here?
A: inactive: -25.3%

Q: How did the Potency turn out when `N#Cc1c(Nc2ccccc2)s[nH]c1=O` was run?
A: inconclusive: 56.2 µM [inhibitor, partial curve, poor fit]

Q: For `CCc1ccc(NC(=O)CS(=O)CC(=O)Nc2ccc(N3CCOCC3)cc2)cc1` (centres undefined), which “activity change, negative = inhibition” value is on record?
A: inactive: -22.4%

Q: How did the “activity change, negative = inhibition” value turn out when `CCCOc1ccc(CCc2n[nH]c(=S)n2Cc2ccccc2)cc1` was run?
A: inactive: -29.4% [at 56.9 µM]

Q: With `Cc1ccc(-n2nnc3ccccc3c2=O)cc1C` as the compound, how does the “activity change, negative = inhibition” value read?
A: inactive: -7.64%

Q: For `Cc1ccc(S(=O)(=O)Nc2ccc(N3CCCCC3)cc2)cc1`, which “activity change, negative = inhibition” value is on record?
A: inactive: -24.3%

Q: For `Cc1ccc(S(=O)(=O)N2CCN(C(=O)COC(=O)C3CCC3)CC2)c(C)c1`, which “activity change, negative = inhibition” value is on record?
A: inactive: 2.63%

Q: Which activity change, negative = inhibition does the source give for `COc1cccc(NC(=O)Cn2c(=O)n(CCC(=O)NC3CCN(Cc4ccccc4)CC3)c(=O)c3ccccc32)c1` here?
A: inactive: 18.7% [at 11.4 µM]

Q: How did the Potency turn out when `Cc1nnc(Sc2nc3ccccc3o2)c2ccccc12` was run?
A: inconclusive: 89.1 µM [inhibitor, single point]

Q: How did the Potency turn out when `CC(=O)c1cccc(NC(=O)CSc2ccc(-c3ccco3)nn2)c1` was run?
A: inconclusive: 50.1 µM [inhibitor, partial curve, poor fit]

Q: With `Cc1ccc2occ(/C=C/C(=O)c3ccccc3O)c(=O)c2c1` as the compound, how does the “activity change, negative = inhibition” value read?
A: inactive: 43.8%

Q: `Cc1ccc(NC(=O)COC(=O)/C=C/c2ccco2)cc1S(=O)(=O)N(C)C` was tested. Which “activity change, negative = inhibition” value did it give?
A: inactive: -19%

Q: Which Potency does the source give for `Nc1ncnc2oc(-c3ccoc3)c(-c3ccco3)c12` here?
A: inconclusive: 44.7 µM [inhibitor, partial curve, poor fit]

Q: `CC[C@H](C)[C@H]1CNC(=S)N1CC1CCN(CC2CCC(C)CC2)CC1` (some centres undefined) was tested. Which “activity change, negative = inhibition” value did it give?
A: inactive: 5.58%

Q: With `Cc1ccc(C(=O)Nc2ccc(C(=O)N3CCCCC3)cc2)o1` as the compound, how does the “activity change, negative = inhibition” value read?
A: inactive: 27.1%

Q: How did the Potency turn out when `CCOC(=O)c1c(NC(=O)COc2ccc(Br)cc2)sc(C(C)=O)c1C` was run?
A: inconclusive: 31.6 µM [inhibitor, full curve, poor fit]

Q: For `COc1ccc(OC)c(Nc2cc3ccccc3c(=O)[nH]2)c1`, which Potency is on record?
A: inconclusive: 89.1 µM [inhibitor, single point]

Q: Which “activity change, negative = inhibition” value does the source give for `CCOc1ccc(NC(=O)CCSc2nc(-c3ccc4c(c3)OCO4)cc(C(F)(F)F)n2)cc1` here?
A: inactive: 9.52%

Q: How did the Potency turn out when `O=C1CSC(=S)N1Cc1cccnc1` was run?
A: inconclusive: 39.8 µM [inhibitor, partial curve, poor fit]

Q: Which “activity change, negative = inhibition” value does the source give for `CCCCn1c(SCC(=O)N2CCN(c3ccccc3)CC2)nc2ccsc2c1=O` here?
A: inactive: -16.1%

Q: With `COc1cccc(C(=O)NCCSc2ccc(F)cc2)c1` as the compound, how does the Potency read?
A: inconclusive: 89.1 µM [inhibitor, partial curve, poor fit]

Q: `COC1=C(OC)C(=O)c2ccccc2C1=O` was tested. Which Potency did it give?
A: inconclusive: 16.8 µM [inhibitor, partial curve, poor fit]

Q: Which Potency does the source give for `O=C(O)CCCCCCNC(=O)c1cncc(O)c1` here?
A: inconclusive: 100 µM [inhibitor, partial curve, poor fit]

Q: Which Potency does the source give for `O=C(Nc1nc(-c2ccccn2)cs1)c1ccc2c(c1)OCCO2` here?
A: inconclusive: 17.8 µM [inhibitor, full curve, poor fit]

Q: `Clc1ccc(-c2nnc(-c3ccco3)nc2N2CCCCC2)cc1` was tested. Which Potency did it give?
A: inconclusive: 79.4 µM [inhibitor, partial curve, poor fit]

Q: How did the “activity change, negative = inhibition” value turn out when `Cc1cc(=O)n(CC(=O)NC(C)c2ccccc2)c2c1c(C)nn2C` (centres undefined) was run?
A: inactive: -0.314%

Q: How did the Potency turn out when `O=[N+]([O-])c1c(Nc2ccccc2O)cc(Cl)c2nonc12` was run?
A: inconclusive: 100 µM [inhibitor, partial curve, poor fit]

Q: For `COc1ccc(C(=O)CSc2n[nH]c(C)n2)cc1[N+](=O)[O-]`, which Potency is on record?
A: inconclusive: 44.7 µM [inhibitor, partial curve, poor fit]

Q: `Cc1ccc(Nc2nc(-c3c(C)nc4ccccn34)cs2)cc1` was tested. Which Potency did it give?
A: inconclusive: 50.1 µM [inhibitor, partial curve, poor fit]

Q: For `COc1ccc(NC(=O)Cc2c[nH]c3ccccc23)cc1S(=O)(=O)N1CCOCC1`, which “activity change, negative = inhibition” value is on record?
A: inactive: 13.5%

Q: With `Cc1ccc(Nc2nc(N)nc(CSc3nnnn3-c3ccccc3)n2)cc1` as the compound, how does the Potency read?
A: inconclusive: 79.4 µM [inhibitor, partial curve, poor fit]

Q: `OCC1(Cc2ccccc2)CCCN(Cc2cn[nH]c2-c2ccccc2)C1` (centres undefined) was tested. Which “activity change, negative = inhibition” value did it give?
A: inactive: 6.32%

Q: `CCN(C(=O)CN1CCN(Cc2ccccc2)CC1)c1c(N)n(Cc2ccccc2)c(=O)[nH]c1=O` was tested. Which Potency did it give?
A: inconclusive: 35.5 µM [inhibitor, full curve, poor fit]

Q: With `CCc1c(C(C)S(=O)(=O)c2ccccc2)[nH]c(=O)n1CC` (centres undefined) as the compound, how does the Potency read?
A: inconclusive: 39.8 µM [inhibitor, partial curve, poor fit]

Q: Which Potency does the source give for `Cn1c2ccccc2c(=O)c2c(=O)n(Cc3ccco3)c(-c3ccc(F)cc3)nc21` here?
A: inconclusive: 89.1 µM [inhibitor, partial curve, poor fit]

Q: How did the Potency turn out when `O=S(=O)(c1ccc(Cl)c(C(F)(F)F)c1)N1CCN(c2ccccn2)CC1` was run?
A: inconclusive: 50.1 µM [inhibitor, partial curve, poor fit]

Q: `CCOC(=O)N1CCC(NC(=S)Nc2ccc3nc(N4CCN(C)CC4)cc(C)c3c2)CC1` was tested. Which “activity change, negative = inhibition” value did it give?
A: inactive: -20.7%

Q: Which Potency does the source give for `Nc1nnc(SCC(=O)OCC(=O)Nc2ccccc2)s1` here?
A: inconclusive: 50.1 µM [inhibitor, partial curve, poor fit]

Q: For `CN1C/C(=C/c2ccccc2[N+](=O)[O-])C(=O)/C(=C\c2ccccc2[N+](=O)[O-])C1`, which Potency is on record?
A: inconclusive: 79.4 µM [inhibitor, partial curve, poor fit]

Q: For `COc1ccc(CCNC(=O)Cn2nc(C)c3c(C)n(-c4ccc(C)cc4)nc3c2=O)c(OC)c1`, which Potency is on record?
A: inconclusive: 39.8 µM [inhibitor, partial curve, poor fit]

Q: For `COC(=O)C1=C(C)NC(=O)C1(NC(=O)c1ccncc1)C(F)(F)F` (centres undefined), which Potency is on record?
A: inconclusive: 35.5 µM [inhibitor, full curve, poor fit]

Q: With `COc1cc(C(=O)Nc2ccc(S(=O)(=O)Nc3cnc4ccccc4n3)cc2)cc(OC)c1OC` as the compound, how does the “activity change, negative = inhibition” value read?
A: inactive: -10.5%

Q: With `CN(C)CCNc1ccc2ncn3c4ccc(O)cc4c(=O)c1c23` as the compound, how does the Potency read?
A: inconclusive: 79.4 µM [inhibitor, partial curve, poor fit]

Q: For `Nc1ccc(S(=O)(=O)NC2(C(F)(F)F)NC(=O)N(c3cccc(Cl)c3)C2=O)cc1` (centres undefined), which “activity change, negative = inhibition” value is on record?
A: inactive: -3.85%
